Experimental data published in PubChem BioAssay AID588855 (National Center for Advancing Translational Sciences (NCATS), 2011).
Out of some 410,000 compounds screened, about 5,000 (1.2%) were called active. The inconclusive results got no clear call from the source; some entries with a clear call stand among them for comparison. Calls come from the whole dose curve; as a rule, active = well fitted inhibition curve with a large enough effect; inconclusive = small, poorly fitted or top-dose-only effect; inactive = no such curve, though single readings can be large or run the other way. Potencies beside an inconclusive call are fits to weak or partial responses and may not hold up.

Assay: qHTS for Inhibitors of TGF-b; note: nearly all actives have a fitted effect of over 65% in size
Conditions: HepG2 CAGA-GFP TGF-b/SMAD3 reporter, GFP fluorescence, 18 h, TGF-beta stimulated, 500 pg/mL final; series mostly up to 46.1 µM
Summary of the method: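 Cell-based qHTS in HEPG2 carrying a CAGA-GFP Smad reporter; compounds added before 500 pg/mL final TGF-beta, 18 h incubation at 37 degrees C, GFP fluorescence quantified per cell by imaging cytometry.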
Potency is the fitted concentration of half-maximal effect; tags give direction and shape of the fitted curve.

Row | Structure (SMILES) | Potency
1 | Cc1ccc2c(c1)C(c1ccccc1)N(C(=O)c1ccc(Br)o1)CC(=O)N2 (stereo unspecified) | inactive
2 | COc1ccc(/C=C(\NC(=O)c2ccc(OC)cc2)C(=O)NC(CCSC)C(=O)O)cc1 (stereo unspecified) | inconclusive: 12.6 µM [inhibitor, single point]
3 | COC(=O)c1c(C)[nH]c(C(=O)/C=C/c2ccc(Cl)cc2)c1C | inconclusive: 22.4 µM [inhibitor, single point]
4 | CCCCC/S(CC1CC1(Cl)Cl)=N\S(=O)(=O)c1ccc(C)cc1 (stereo unspecified) | inactive
5 | CC(C)c1nc2sc3c(=O)[nH]cnc3c2c2c1CCC2 | inactive
6 | Cc1ccc(S(=O)(=O)O/N=C2\CCCc3ccccc32)cc1 | inactive
7 | O=C(Nc1ccc(N2CCN(C(=O)c3ccccc3)CC2)cc1)c1cc2ccccc2o1 | inactive
8 | COc1ccc2c(c1)OC[C@H]1[C@H]2N2C(=O)c3ccc(F)cc3NC(=O)[C@@]2(C)[C@H]1c1ccccc1 | inactive
9 | CC12CC(O)C3c4ccc(O)cc4CCC3C1CCC2=O (stereo unspecified) | inactive
10 | O=C(c1ccc2ccccc2c1O)N1CCCCC1 | inactive
11 | Nc1nc2ccccc2n1/N=C/c1ccc([N+](=O)[O-])s1 | inconclusive: 4.47 µM [inhibitor, full curve, poor fit]
12 | O=C(c1ccc(Cl)cc1)C1CCN(C(=O)c2ccc(F)cc2)CC1 | inconclusive: 11.2 µM [inhibitor, partial curve]
13 | C[C@H]1CN([C@@H](C)CO)C(=O)CCCn2nncc2CO[C@H]1CN(C)S(=O)(=O)c1ccc(-n2cccn2)cc1 | inactive
14 | Cc1nc2sc(C(c3ccco3)N3CCN(C(c4ccccc4)c4ccccc4)CC3)c(O)n2n1 (stereo unspecified) | inconclusive: 17.8 µM [inhibitor, single point]
15 | CC(NC(=O)C12CC3(C)CC(C)(CC(C)(C3)C1)C2)C(=O)O (stereo unspecified) | inconclusive: 2.24 µM [inhibitor, partial curve, poor fit]
16 | ONC(=Nc1ccc(Cl)cc1)c1ccc(Cl)cc1 | inconclusive: 5.62 µM [inhibitor, single point]
17 | CC(=O)c1c(C(C)=O)c(C)n(-c2ccc(C(=O)O)cc2)c1C | inactive
18 | Cc1ccc(NC(=O)CN2CCN(S(=O)(=O)c3ccc(F)cc3)CC2)cc1C | inactive
19 | CCN1C(=O)[C@@H]2[C@@H](c3ccc(SC4CCCCC4)cc3)N3CCCC[C@@]3(C(=O)OC)[C@@H]2C1=O | inconclusive: 22.4 µM [inhibitor, single point]
20 | CC1(CN2CCCC2)CCC(NC(=O)C(c2ccccc2)c2ccccc2)C(C)(C)O1 (stereo unspecified) | inactive
21 | COC(=O)c1cn(-c2ccccc2)nc1-c1ccc(OC)c(OC)c1 | inactive
22 | S=C(NCCC(c1ccccc1)c1ccccc1)Nc1cccc(Cl)c1 | inconclusive: 28.2 µM [inhibitor, single point]
23 | CCOC(=O)c1nnn(-c2nonc2N)c1-c1ccc(Cl)cc1 | inconclusive: 17.8 µM [inhibitor, single point]

Row | Structure (SMILES) | Potency
24 | CC1(C)Cc2nc3sc4c(NCCO)ncnc4c3cc2CS1 | inconclusive: 12.6 µM [inhibitor, partial curve, poor fit]
25 | COc1ccc(NS(=O)(=O)c2cc(-c3nnnn3C)ccc2OC)cc1 | inactive
26 | CCN(c1cccc(C)c1)S(=O)(=O)c1ccc2c(c1)CCCN2C(C)=O | inactive
27 | COc1ccc(C(c2nnnn2C2CCCCC2)N2CCN(C/C=C/c3ccccc3)CC2)cc1 (stereo unspecified) | inconclusive: 35.5 µM [inhibitor, single point]
28 | COc1cccc(CNc2nc3cc(-c4csc5ccccc45)sc3c(=O)n2C)c1 | inconclusive: 12.6 µM [inhibitor, partial curve]
29 | CCOc1ccc(NC(=O)c2cc(Cl)nc3ccccc23)cc1 | inactive
30 | CC(/C=N/NC(=O)CSc1nc2ccccc2n1C)=C\c1ccco1 | inconclusive: 10 µM [inhibitor, partial curve, poor fit]
31 | O=C(COc1ccc(S(=O)(=O)N2CCCC2)cc1)NCc1cccnc1 | inconclusive: 0.112 µM [inhibitor, full curve, poor fit]
32 | O=C(c1ccc(C#Cc2ccccc2)o1)N1CCN(c2ccccn2)CC1 | inconclusive: 15.8 µM [inhibitor, single point]
33 | Cc1ccc(CNS(=O)(=O)c2ccc(Br)s2)cc1 | inconclusive: 35.5 µM [inhibitor, single point]
34 | COc1ccccc1N1CCN(CC(=O)Nc2ccc(S(=O)(=O)N3CCCCCC3)cc2)CC1 | inconclusive: 14.1 µM [inhibitor, partial curve, poor fit]
35 | CCCCc1ccc(NC(=S)NCc2cccnc2)cc1 | inconclusive: 25.1 µM [inhibitor, single point]
36 | CC1(C)CN(C(=S)Nc2ccc(F)cc2F)C1=O | inactive
37 | CC1CCCCN1C(=O)c1cccc(NC(=O)c2ccccc2)c1 (stereo unspecified) | inactive
38 | COc1ccc(CNC(=O)CN2C(=O)COc3ccc(S(=O)(=O)N4CCCCCC4)cc32)cc1 | inconclusive: 35.5 µM [inhibitor, single point]
39 | CC(=O)Nc1ccc(S(=O)(=O)N(C)c2ccc(OCCOc3cccc(C)c3)cc2)cc1 | inconclusive: 35.5 µM [inhibitor, single point]
40 | COc1cccc(CN2C(=O)[C@@H]3Cc4c([nH]c5ccccc45)C(C)(C)N3C2=O)c1 | inconclusive: 35.5 µM [inhibitor, single point]
41 | O=C(NCCc1ccccn1)c1c(-c2ccsc2)sc2ccccc12 | inactive
42 | COC(=O)c1sccc1S(=O)(=O)N(CC(=O)Nc1cc(C)cc(C)c1)c1ccc(Cl)cc1 | inconclusive: 10 µM [inhibitor, partial curve, poor fit]
43 | O=C(Nc1cccc(Cl)c1N1CCOCC1)c1ccc(Br)o1 | inactive
44 | CCCOc1ccc(F)cc1-c1cc(C(=O)Nc2ccc(OC)c(OC)c2)[nH]n1 | inconclusive: 35.5 µM [inhibitor, single point]
45 | Cc1ccc(S(=O)(=O)N2CCc3ccccc3C2)cc1 | inconclusive: 22.4 µM [inhibitor, single point]
46 | O=[N+]([O-])c1ccc(N/N=C/c2cccc(O)c2O)c(S(=O)(=O)N2CCOCC2)c1 | inconclusive: 31.6 µM [inhibitor, single point]
